Screen size: about 48,000 compounds; about 550 (1.1%) were called active. Roughly 4% stayed inconclusive and do not appear here. No stated cut-off is given here; in the data, active means potency below about 15 µM; inconclusive means mostly about 16 µM to 33 µM; inactive means weaker than that. Some of the results follow.
Molecular target: Lysosomal acid glucosylceramidase (Homo sapiens) (UniProt P04062)
Experiment: Glucocerebrosidase;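 further: the screen sought inhibitors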
Conditions: purified enzyme, resorufin glucoside fluorescence (screen aimed at inhibitors), 20 min
Summary of the method: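 Wild-type enzyme at 0.2 nM final in 50mM citric acid/KH2PO4, 10mM sodium taurocholate, 0.01% tween-20, pH 5.9, with resorufin beta-D-glucopyranoside at 30 uM final. Compounds titrated, 20 min at RT, red fluorescence read; AC50 from titration.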
Potency means the concentration at half of the fitted maximal effect.

Chain of UniProt P04062 (P04062 whole entry, looked up): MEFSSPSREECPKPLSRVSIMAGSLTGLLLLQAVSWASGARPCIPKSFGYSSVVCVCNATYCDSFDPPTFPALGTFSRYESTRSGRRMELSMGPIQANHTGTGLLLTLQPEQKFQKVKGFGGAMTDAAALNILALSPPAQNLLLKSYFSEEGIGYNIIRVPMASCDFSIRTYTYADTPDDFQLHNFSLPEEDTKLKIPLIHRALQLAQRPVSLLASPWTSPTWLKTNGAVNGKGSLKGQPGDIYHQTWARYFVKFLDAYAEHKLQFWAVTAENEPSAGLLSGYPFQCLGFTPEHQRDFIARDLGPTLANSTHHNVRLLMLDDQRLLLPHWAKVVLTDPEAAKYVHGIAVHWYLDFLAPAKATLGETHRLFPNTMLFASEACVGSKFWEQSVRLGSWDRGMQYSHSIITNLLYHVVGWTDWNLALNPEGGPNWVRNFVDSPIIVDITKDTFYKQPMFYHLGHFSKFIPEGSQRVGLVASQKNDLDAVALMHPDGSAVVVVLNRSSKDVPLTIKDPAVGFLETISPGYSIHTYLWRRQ

Potency, inactive:
CN(C)CCNC(=O)c1c(O)c2c([nH]c1=O)CCCC2 > 76.9 µM
CC1(C)CC(N2CCN(c3ccccc3)CC2)=CC(=[N+]2CCCC2)C1 > 76.9 µM
CC(=O)Nc1ccc2oc(-c3cc(F)c(F)cc3Cl)nc2c1 > 76.9 µM
CCC(C)c1ccc(NC(=O)CC(C)=O)cc1 (stereo unspecified)
CCOc1ccccc1N(CC(=O)OC)S(C)(=O)=O > 76.9 µM
Cc1nn(-c2ccc(Cl)cc2)c2sc(C(=O)N3CCN(c4ccccn4)CC3)cc12 > 76.9 µM
CCCOC(=O)Nc1sc2c(c1C(=O)OCC)CCC2 > 76.9 µM
CCOC(=O)c1ccc(NC(=O)CN2C(=O)CNC2=O)cc1 > 76.9 µM
COC(=O)c1[nH]c2cccc(Cl)c2c1NC(=O)CN(C)C1CCCCC1 > 76.9 µM
CCCCN1C(=O)c2ccc(C(=O)NC3=NCCS3)cc2C1=O > 76.9 µM
O=C(c1cnccn1)N1CCN(C/C=C/c2ccccc2)CC1 > 76.9 µM
CN=C1SC(CC(=O)Nc2cccc(Cl)c2Cl)C(=O)N1C (stereo unspecified) > 76.9 µM
Cc1cc(C)n2ncc(C(=O)Nc3ccc4c(c3)OCO4)c2n1 > 76.9 µM
CCOCCCNC(=O)CS(=O)(=O)Cc1nc(-c2cccc(OC)c2)oc1C > 76.9 µM
CC(=O)OCC(OC(C)=O)C(OC(C)=O)C(OC(C)=O)C(=O)Nc1ccccc1C (stereo unspecified) > 76.9 µM
O=C(O)C1CC(c2ccccc2F)=NO1 (stereo unspecified) > 76.9 µM
O=C(CSc1nnc(COc2cccc3cccnc23)o1)c1ccc(F)cc1 > 76.9 µM
COc1cc2c(cc1OC)CN(C(=O)CCCN1C(=O)c3ccccc3C1=O)CC2 > 76.9 µM
Cc1nn(CCCNC(=O)C2CCCO2)cc1Br (stereo unspecified) > 76.9 µM
O=C(c1ccccc1C(=O)N1CCN(c2ccc(F)cc2)CC1)N1CCN(c2ccc(F)cc2)CC1 > 76.9 µM
CSc1nnc(-c2cnccn2)n1Cc1ccccc1 > 76.9 µM
CCC(=O)NC(C)C(c1cccs1)N1CCOCC1 (stereo unspecified) > 76.9 µM
Cn1c(=O)c2c(nc(N3CCCC3)n2CC(O)CO)n(C)c1=O (stereo unspecified) > 76.9 µM
O=C(CSc1nnc(-c2ccco2)n1Cc1ccccc1)NC(=O)NCc1ccccc1 > 76.9 µM
O=C(O)c1ccc(CN2C(=O)c3ccccc3S2(=O)=O)cc1 > 76.9 µM
Cc1cc2cc3c(cc2nc1SCC(=O)O)OCCO3 > 76.9 µM
